# Laboratory results from PubChem BioAssay AID488969 (Vanderbilt High Throughput Screening Facility, 2010).
# Over roughly 110,000 compounds, “z-score” has its median near -0.1; the highest 2% begin near 2. Some of the results follow. Active and inactive are the calls of the source.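 How the source made its calls: active means z-score in the third read window above 3 or below -3; inactive means the rest.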
# Molecular target: Metabotropic glutamate receptor 8 (Rattus norvegicus) (UniProt P70579)
# Experiment: rat mGluR8 modulators via GIRK flux, primary screen, cell-based, thallium flux, HTS (AID 488969)
# Conditions: HEK293 rat mGluR8, GIRK (G protein-gated inwardly rectifying potassium channel) thallium flux, FluoZin2; at 10 µM; stronger effect = higher value; submaximal glutamate (EC20) added with thallium
# Sequence of UniProt P70579 (P70579 whole entry, looked up): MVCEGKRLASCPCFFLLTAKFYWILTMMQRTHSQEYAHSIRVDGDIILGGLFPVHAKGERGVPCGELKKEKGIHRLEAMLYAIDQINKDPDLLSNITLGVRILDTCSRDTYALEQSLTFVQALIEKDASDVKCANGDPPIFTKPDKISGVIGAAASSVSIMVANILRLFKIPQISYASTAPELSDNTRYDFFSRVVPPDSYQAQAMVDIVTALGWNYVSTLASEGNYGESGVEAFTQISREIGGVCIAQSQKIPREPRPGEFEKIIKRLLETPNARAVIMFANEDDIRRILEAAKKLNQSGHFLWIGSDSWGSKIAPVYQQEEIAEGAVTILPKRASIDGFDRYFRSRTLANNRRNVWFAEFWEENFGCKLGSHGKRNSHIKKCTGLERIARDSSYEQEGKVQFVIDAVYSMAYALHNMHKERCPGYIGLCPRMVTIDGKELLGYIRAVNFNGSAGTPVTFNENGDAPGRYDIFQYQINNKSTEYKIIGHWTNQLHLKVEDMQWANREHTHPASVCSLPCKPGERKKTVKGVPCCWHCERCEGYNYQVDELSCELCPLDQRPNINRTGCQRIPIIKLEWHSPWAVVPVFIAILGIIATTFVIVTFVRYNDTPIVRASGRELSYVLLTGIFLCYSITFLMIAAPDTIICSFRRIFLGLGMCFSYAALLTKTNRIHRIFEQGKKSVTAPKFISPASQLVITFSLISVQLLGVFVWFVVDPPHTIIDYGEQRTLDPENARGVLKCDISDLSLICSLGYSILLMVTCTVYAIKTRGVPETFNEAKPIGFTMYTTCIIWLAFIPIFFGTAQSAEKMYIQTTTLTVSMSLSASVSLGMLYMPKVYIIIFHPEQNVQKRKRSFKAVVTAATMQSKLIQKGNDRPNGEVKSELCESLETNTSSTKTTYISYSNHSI
row,Structure (SMILES),z-score
1,Cc1cccc(CSCCNC(=O)CSCc2ccc([N+](=O)[O-])cc2)c1,0.0119
2,CCOc1cc(S(=O)(=O)N(CC)CC)ccc1Br,0.61
3,COc1cccc(CNC(=O)C(=O)NCC2CCCO2)c1 (stereo not given),0.092
4,O=C(Nc1ccccc1)/C(=C/c1ccc([N+](=O)[O-])cc1)NC(=O)c1ccccc1,0.0934
5,Cc1cccc(-c2nsc(SCC(=O)N3CCCC3)n2)c1,0.846
6,O=C(Cn1ncc2c(=O)oc3ccccc3c21)NCCCN1CCCC1=O,0.0795
7,CCNC(=O)COC(=O)c1cc(-c2ccc(OC)cc2)nc2ccccc12,-0.186
8,O=C(COC(=O)c1cccnc1Cl)c1ccccc1,-0.0785
9,COC(=O)C(Cc1ccc(OC(=O)c2ccccc2C)cc1)N1Cc2ccccc2C1=O (stereo not given),-0.569
10,Cc1cc(C(F)F)n2nc(C(=O)Nc3cccnc3Cl)nc2n1,-0.918
11,COc1ccc(NC(=S)NN2C(C)CCCC2C)cc1 (stereo not given),-0.209
12,CCOCCCNC(=S)NNC(=O)CCn1nc(C)c(Br)c1C,0.0454
13,O=C(O)/C=C\C(=O)Nc1ccccc1C(=O)N1CCN(c2ccc(Cl)cc2)CC1,-0.192
14,O=C(C=C1SCCS1)/C=C/c1ccco1,0.393
15,Cc1cnc(C(=O)Nc2ccc(F)cc2)cn1,0.237
16,COC(=O)Cn1c(CN2CCN(c3ccc(F)cc3)CC2)nc2c1c(=O)n(C)c(=O)n2C,0.104
17,O=C(c1cccs1)n1nc(-c2ccco2)nc1SCc1ccccc1,-0.335
18,CC1CCCN(c2ccc(C(=O)Nc3ccc4c(c3)OCO4)cc2[N+](=O)[O-])C1 (stereo not given),-0.321
19,CCN(CC)S(=O)(=O)c1ccc(N2CCCC2)c(NS(=O)(=O)c2ccc([N+](=O)[O-])cc2)c1,-0.268
20,COc1ccc(-n2cc(C(=O)c3cc4ccccc4oc3=O)c(C(C)=O)n2)cc1,0.0849
21,CC1COC2C(O1)N(S(C)(=O)=O)CCN2S(C)(=O)=O (stereo not given),0.224
22,Cc1nn(-c2ccccc2)c2c1C1(C(=O)N(C)c3ccccc31)N(c1ccccc1)C(=O)N2 (stereo not given),1.25
23,CNC(=O)N(C1=NCC(C)(C)S1)c1ccc(F)c(Cl)c1,-0.111
24,CCCCCCC(=O)NNC(=O)CC(=O)Nc1ccccc1C(=O)O,-0.284
25,C/C(=N\NC(=O)CSc1nc2nc(C)cc(C)n2n1)c1ccccc1,0.413
26,COc1ccc(-c2nc(S(=O)(=O)c3ccc(C)cc3)c(N3CCCC3)o2)cc1,-0.0607
27,O=C(c1cc2ccccc2o1)N1CCN=C1SCc1cccnc1,-0.23

row,Structure (SMILES),z-score
1,COCc1cc(C)nc(SCC(=O)N2CCC(C)CC2)c1C#N,0.67
2,COc1ccc(S(=O)(=O)N(C)CC(=O)Nc2c(F)cccc2F)cc1,-0.0769
3,Cn1c(/C=N/n2cnnc2)nc2ccccc21,0.176
4,Cc1nc(N2CCN(c3ccccc3)CC2)[nH]c(=O)c1Cc1cccc2ccccc12,-0.228
5,CCOC(=O)c1ccc(Oc2nc(NC)nc(OC)n2)cc1,-0.524
6,O=C(O)c1ccccc1SCc1cn2ccccc2n1,0.0786
7,COc1ccccc1CC(=O)Nc1ccc(-c2noc(COc3cccc(C)c3C)n2)cc1,-0.394
8,COc1ccc(S(=O)(=O)N2CCSC2)cc1C,-0.243
9,Nc1c(-c2ccc(F)cc2)cnn1C1CCS(=O)(=O)C1 (stereo not given),-0.0127
10,CN(C)C(=O)c1ccc2c(c1[N+](=O)[O-])C(=O)c1ccccc1C2=O,0.185
11,N#Cc1c(NC(=O)CSc2ncn[nH]2)sc2c1CCCC2,-0.387
12,CCC(=O)N1CCc2cc(S(=O)(=O)Nc3ccc4c(c3)OCCO4)ccc21,-0.208
13,COc1ccc(-c2nnc3c4ccccc4c(C)nn23)cc1,-0.545
14,CCOC(=O)C1CCCN(c2c(N3CCOCC3)c(=O)c2=O)C1 (stereo not given),0.314
15,O=C(COc1ccc(S(=O)(=O)NC2CCCCC2)cc1)NCc1cccnc1,-0.589
16,COC(=O)CN(Cc1ccccc1)S(=O)(=O)c1ccc(OC)c(OC)c1,-0.621
17,COc1cccc(C(=O)N/N=C/c2ccc(Oc3ccc([N+](=O)[O-])cn3)c(OC)c2)c1,0.235
18,CC(=O)Oc1cccc(N2C(=O)c3ccccc3C2=O)c1,0.0143
19,CCCc1[nH]nc2c1C1(C(=O)N(CC)c3ccccc31)C(C#N)=C(N)O2 (stereo not given),-0.625
20,CCOc1ccc2nc(NC(=O)C(CC)Sc3nc(C)cc(=O)[nH]3)sc2c1 (stereo not given),active: -5.76
21,COCC(=O)n1cc(C(=O)OC)c2ccccc21,0.219
22,CCOC(=O)c1[nH]c2ccc(C)cc2c1N=CN(CC)CC,0.273
23,CCCc1ccc(-c2cc(NC(=O)CSc3nnc(N)s3)n(-c3ccccc3)n2)cc1,0.28
24,COc1ccc(N=C2C(=Nc3ccc(OC)cc3)N(c3ccccc3)C(=S)N2C(=O)c2ccc(Cl)cc2)cc1,0.0583
25,CCOC(=O)c1c(C)nc2sc3c(=O)n(-c4ccc(OC)cc4)nnc3c2c1-c1ccc(OC)cc1,0.0499
26,CC(=O)OC[C@H]1O[C@@H](Sc2cccc3cccnc23)[C@H](OC(C)=O)[C@@H](OC(C)=O)[C@@H]1OC(C)=O,-0.316
27,COC(=O)[C@@H]1C(c2ccccc2)(c2ccccc2)[C@@]1(C)C(=O)OC,-0.368

row,Structure (SMILES),z-score
1,CCOCCCn1c(SCC(=O)NCc2ccco2)nc2c(sc3ccccc32)c1=O,-0.0769
2,Cc1ccc2[nH]c(C)c(/C=N/Nc3nc4ccccc4s3)c2c1,-0.0958
3,CN(CC(=O)N1CCN(C2CCCCC2)CC1)S(=O)(=O)c1cccc2nsnc12,-0.124
4,CC(C)(C)NC(=O)COc1ccc(-c2ccccc2)cc1,-0.142
5,CC(=O)/C(=N/Nc1cccc(Cl)c1)Sc1nnc(C(O)c2ccccc2)n1-c1ccccc1 (stereo not given),-0.12
6,COc1cccc(/C=N/NC(=O)CC2C(=O)NN=C2C)c1OC (stereo not given),0.0513
7,Cc1c(NC(=O)c2cc3ccccc3o2)c(=O)n(-c2ccccc2)n1C,-0.138
8,CCCCc1ccc(CC2S/C(=C(\C#N)C(=O)N3CCOCC3)N(c3ccccc3)C2=O)cc1 (stereo not given),1.87
9,O=C(NC1(C(F)(F)F)C(=O)Nc2c1c(=O)[nH]c(=O)n2Cc1ccccc1)c1ccco1 (stereo not given),0.311
10,Cc1c(NC(=S)N/N=C/c2ccc(O)cc2)c(=O)n(-c2ccccc2)n1C,-0.645
11,COc1ccc(OC)c(C(=O)/C=C/c2ccccc2C(F)(F)F)c1,-0.398
12,CC(NC(=O)NC12CC3CC(CC(C3)C1)C2)C1CCCO1 (stereo not given),0.288
13,COc1ccc(CC(=O)Nc2nncs2)cc1OC,0.63
14,COC(=O)c1ccc(Oc2coc3cc(OCc4ccc([N+](=O)[O-])cc4)ccc3c2=O)cc1,-0.193
15,O=C(NCc1cccc(C(F)(F)F)c1)C1CC(c2ccccc2[N+](=O)[O-])=NO1 (stereo not given),-0.278
16,O=C(COC(=O)CCc1ccc(S(=O)(=O)N2CCOCC2)cc1)Nc1ccc(Cl)cn1,-1.8
17,CCOC(=O)c1ccc(NC(=O)NC(C)C2CCCO2)cc1 (stereo not given),1.07
18,COC(=O)c1ccccc1NC(=O)CSc1nnc(COc2cccc(OC)c2)n1C,-0.936
19,COc1ccc(C(=O)n2nc(C)c(Br)c2C)cc1,0.201
20,CC(C)CN1C(=S)SC(C)(C)C1n1oc(=O)n(-c2ccc(Cl)cc2)c1=O (stereo not given),-0.00187
21,COc1ccc(OCC(=O)Nc2cc(-c3nn4c(C)nnc4s3)ccc2C)cc1,0.131
22,COc1ccc(NC(=S)NCCCn2ccnc2)cc1,0.26
23,CC(=O)Nc1nnc(SCC(=O)NC(C)(C)C)s1,1.38
24,CC(C)CNC(=O)c1cccc(NC(=O)c2ccc(Cl)c([N+](=O)[O-])c2)c1,-0.478
25,Cn1c(CN2CCOCC2)nnc1SCC(=O)Nc1ccc2c(c1)OCCO2,-0.0895
26,O=C1NC(c2ccccc2)C(C(=O)c2cccs2)C(O)(C(F)(F)F)N1 (stereo not given),-0.23
27,CC1=NN(C(=O)c2ccccc2-n2cccc2)C(O)(C(F)(F)F)C1 (stereo not given),-0.142

row,Structure (SMILES),z-score
1,Cc1sc(NC(=O)/C=C/C(=O)O)c(C(N)=O)c1-c1ccc(C(C)(C)C)cc1,-0.897
2,COC(=O)C1C2CCC(C2)C1C(=O)OCC(=O)c1ccccc1 (stereo not given),0.411
3,Cc1ccc(C(=O)N/C(=C\c2ccc(F)cc2)C(=O)NCc2ccncc2)cc1,-0.00567
4,CC1CCc2cc(F)ccc2N1C(=O)c1cnc2sccn2c1=O (stereo not given),0.115
5,NC(=O)CSc1nnc(C2CC2)n1-c1ccccc1,-0.0176
6,Cc1cc(C)nc(SCC(=O)Oc2ccc3oc(=O)cc(C)c3c2)n1,0.377
7,CC(C)COc1ccc(CSCCNC(=S)Nc2ccccc2)cc1,0.518
8,CCOc1cc(CO)ccc1OCC(=O)N1CCCCC1,0.0126
9,C=CCn1c(SCC(=O)N2CCCC2)nc2scc(-c3cccs3)c2c1=O,-0.554
10,Cc1nn(C)c(C(=O)Nc2ccc(Cn3cccn3)cc2)c1[N+](=O)[O-],-0.0807
11,COCC(=O)N1CCN(c2ccc([N+](=O)[O-])cc2)CC1,-0.196
12,CCOC(=O)C1=C(CC)Nc2ccccc2N=C1NC(=O)c1cc(S(=O)(=O)N(C)C)ccc1Cl,0.243
13,Cc1nc(C)c(C(=O)C2=C(O)C(=O)N(CCN(C)C)C2c2cccs2)s1 (stereo not given),-0.163
14,NC(=O)CSc1nnc(-c2cc3ccccc3o2)n1Cc1ccccc1,-0.657
15,CC1=C(C(=O)Nc2ccccc2)C(c2coc3ccccc3c2=O)C2=C(CCCC2=O)N1 (stereo not given),-0.381
16,Cc1cc(=O)n2[nH]c(-c3cccnc3)nc2n1,-0.133
17,O=C(c1ccccc1)n1nnc2ccccc21,-0.0507
18,Cc1ccccc1Cc1c(C)nc2nc(SCC(=O)NCc3ccco3)nn2c1C,0.394
19,CCOC(=O)CN(C(=O)Cn1nnc(-c2ccc(OC)cc2)n1)C(C(=O)NC1CCCC1)c1ccc(F)cc1 (stereo not given),0.146
20,COCCNC(=O)/C(C#N)=C/c1c(N2CC(C)OC(C)C2)nc2ccccn2c1=O (stereo not given),-0.347
21,CN(CCOC(=O)c1ccc2c(c1)OCCO2)Cc1ccccc1,-0.00693
22,COc1ccc(-c2ccc(=O)n(CC(=O)Nc3nnc(C(C)C)s3)n2)cc1OC,0.204
23,CCOC(=O)c1cnc2c(C)c(Cl)ccc2c1Nc1ccc(S(=O)(=O)Nc2ncccn2)cc1,active: 9.28
24,Cc1cccc(N2CCc3c2nc2ccc(Br)cc2c3N)c1,-0.484
